Consider 81 sequences from paper PMC6602471.

Some of the results follow. At the low end of the ranking the order means little.

This assay concerns the target T1, ELK1 (UniProt P19419).
T1 sequence: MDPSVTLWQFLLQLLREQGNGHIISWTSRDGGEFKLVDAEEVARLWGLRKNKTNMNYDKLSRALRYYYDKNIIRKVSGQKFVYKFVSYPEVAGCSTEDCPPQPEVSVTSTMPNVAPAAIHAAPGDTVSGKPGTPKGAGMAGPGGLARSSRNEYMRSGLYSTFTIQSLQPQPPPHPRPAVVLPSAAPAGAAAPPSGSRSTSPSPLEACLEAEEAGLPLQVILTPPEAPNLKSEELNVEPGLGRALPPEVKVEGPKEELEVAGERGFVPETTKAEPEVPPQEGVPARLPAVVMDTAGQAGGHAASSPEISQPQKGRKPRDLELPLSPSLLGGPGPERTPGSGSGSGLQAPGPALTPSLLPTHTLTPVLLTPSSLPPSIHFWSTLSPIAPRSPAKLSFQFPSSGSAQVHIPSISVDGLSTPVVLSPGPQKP
As to the kind of experiment: custom PBM. The settings on record: custom protein-binding microarray; buffer, salt, pH and temperature not stated; high values mean tight binding; double strand, one strand shown.
“GTGTATAGGACCCCATCCAACACACGTGTTAAAATGGTCTTGATTCGCTTGACGCTGCTG”: the binding signal (log fluorescence intensity) was found to be 8.75. With “CACAATTTTTACCGTAATGTAGCACGCGTAACTCCTGTCTTGATTCGCTTGACGCTGCTG”, the binding signal (log fluorescence intensity) stood at 8.86. The result for “TACTGCCTTATATATGCGAATGCACATGAATAGACCGTCTTGATTCGCTTGACGCTGCTG” reads 9.03. For the sequence “CACAATTTTTACAGTAATGTAGCACGCGTAATTCCTGTCTTGATTCGCTTGACGCTGCTG”, the binding signal (log fluorescence intensity) is 8.98. With “TCCTGACTTATATATGCGAATGCACATGAATAGACCGTCTTGATTCGCTTGACGCTGCTG” the figure was 8.85; with “TCCGGCTACCAGCTCCACCCACTTCAGGCCTTGAAGGTCTTGATTCGCTTGACGCTGCTG”, 8.77; with “TAAAGGGAATACGGTTGTGGTAGTTCCGGGTATTAAGTCTTGATTCGCTTGACGCTGCTG”, 11.1. On to “CAGCATAGGACTTCTACCCTGAAGCAATTGATAACCGTCTTGATTCGCTTGACGCTGCTG”, for which the binding signal (log fluorescence intensity) was 8.72. With “TAAAGGGAAGACGGTTGTGGTAGTTCCGGGTATTGAGTCTTGATTCGCTTGACGCTGCTG” the figure was 11.3.

As for “CAGCATAGGACTTCTTCCCTGAAGCAATTTATAACCGTCTTGATTCGCTTGACGCTGCTG”, the binding signal (log fluorescence intensity) was 8.72. As for “CTGGGACTTTACCCAACTCTGCCACGTGGGTCGTTTGTCTTGATTCGCTTGACGCTGCTG”, the binding signal (log fluorescence intensity) amounted to 8.67.

Turning to “CACAATTTTTACAGTAATGTAGCACGCGTAACTCTTGTCTTGATTCGCTTGACGCTGCTG”, the binding signal (log fluorescence intensity) is 8.84. Consider “GATTAATTTCTGCCCTTATTCGCACGTGCCATAGCAGTCTTGATTCGCTTGACGCTGCTG”, for which the binding signal (log fluorescence intensity) is 8.8. Consider “TGTCGGGTAAGGGAATGTAGATCACCTGAATGAAAAGTCTTGATTCGCTTGACGCTGCTG”, for which the binding signal (log fluorescence intensity) turned out to be 8.81. As for “GTGTATAGGATCCCATCCAACACACGTGTTAAATTGGTCTTGATTCGCTTGACGCTGCTG”, the binding signal (log fluorescence intensity) was found to be 8.89.

“GTGTATAGGATCCCATCCAACACAGGTGTTAAAATGGTCTTGATTCGCTTGACGCTGCTG”: the binding signal (log fluorescence intensity) was 8.87.

As to “TCCGGCTACCAGCTCCACCCACTTTAGGCCTTGTAGGTCTTGATTCGCTTGACGCTGCTG”, the binding signal (log fluorescence intensity) was 8.87.

On to “GATTAATTTCTGCCCTTATTCGCACGTGCCGTAACAGTCTTGATTCGCTTGACGCTGCTG”, for which the binding signal (log fluorescence intensity) is 8.83. The result for “TGTCGGGTATGGGAATGTAGATCACGTGAATGAAAAGTCTTGATTCGCTTGACGCTGCTG” reads 8.87; that for “TGTCGGCTAAGGGAATGTAGATCACGTGAATGAAAAGTCTTGATTCGCTTGACGCTGCTG”, 8.86. Turning to “CACAATATTTACAGTAATGTAGCACGCGTAACTCCTGTCTTGATTCGCTTGACGCTGCTG”, the binding signal (log fluorescence intensity) turned out to be 8.95.

Regarding “TAAAGGGAAGACGGTTGTGGTAGTGCCGGGTATTAAGTCTTGATTCGCTTGACGCTGCTG”, the binding signal (log fluorescence intensity) amounted to 8.87.

As to “CAGCATAGGACTTCTTCCCTGAAGCAAGTGATAACCGTCTTGATTCGCTTGACGCTGCTG”, the binding signal (log fluorescence intensity) turned out to be 8.97. With “CTGGGACTTGACCCAACTCTCCCACGTGGGTCGTTTGTCTTGATTCGCTTGACGCTGCTG” the figure was 8.78; with “CGGAAGTGTGGTAAACGTCGGATATCCGGTTCTTCTGTCTTGATTCGCTTGACGCTGCTG”, 12. For “CTGGGACTTGACGCAACTCTGCCACGTGGGTCGTTTGTCTTGATTCGCTTGACGCTGCTG”, the binding signal (log fluorescence intensity) was 8.82. With “TAAAGGGAAGACGGTTGTGGTAGTTTCGGGTATTAAGTCTTGATTCGCTTGACGCTGCTG” the figure was 8.97; with “GCTGCTGCGGAGCATACCCCACCGGATGTGACCCCGGTCTTGATTCGCTTGACGCTGCTG”, 10.3. Turning to “GATTAATTTCTGCCCTTATTCGCACGTGCCATAACCGTCTTGATTCGCTTGACGCTGCTG”, the binding signal (log fluorescence intensity) turned out to be 8.86.

As to “TACTGACTTATATATGCGAATGCACATAAATAGACCGTCTTGATTCGCTTGACGCTGCTG”, the binding signal (log fluorescence intensity) is 8.85. “TACTGAGTTATATATGCGAATGCACATGAATAGACCGTCTTGATTCGCTTGACGCTGCTG”: the binding signal (log fluorescence intensity) is 8.97. “TAAAGGGAAGACGGTTGTGGTAGTTCCGGGCATTAAGTCTTGATTCGCTTGACGCTGCTG”: the binding signal (log fluorescence intensity) was found to be 11.3. With “CGGAGGTGTCGTAAACGTCGGATATCCGGTTCTTCTGTCTTGATTCGCTTGACGCTGCTG”, the binding signal (log fluorescence intensity) is 12.2. On to “CGGAAGTGTCGTAGACGTCGGATATCCGGTTCTTCTGTCTTGATTCGCTTGACGCTGCTG”, for which the binding signal (log fluorescence intensity) was found to be 12.3. With “CACTGACTTATATATGCGAATGCACATGAATAGACCGTCTTGATTCGCTTGACGCTGCTG”, the binding signal (log fluorescence intensity) is 8.71. As to “TACTGACTTATATATGCGAATCCACATGAATAGACCGTCTTGATTCGCTTGACGCTGCTG”, the binding signal (log fluorescence intensity) was 8.88. The result for “TAAAGGGAAGACGGTTGTGATAGTTCCGGGTATTAAGTCTTGATTCGCTTGACGCTGCTG” reads 11.1.

As to “CCCAATTTTTACAGTAATGTAGCACGCGTAACTCCTGTCTTGATTCGCTTGACGCTGCTG”, the binding signal (log fluorescence intensity) was 8.98. With “TAGTGACTTATATATGCGAATGCACATGAATAGACCGTCTTGATTCGCTTGACGCTGCTG” the figure was 8.9; with “CACAATTTTTACAGTAATGTAGCACGCGTAACTCCTGTCTTGATTCGCTTGACGCTGCTG”, 8.83; with “GTGTAAAGGATCCCATCCAACACACGTGTTAAAATGGTCTTGATTCGCTTGACGCTGCTG”, 9.02. With “GGAAAAAGGCCCAGGGTAACACCGGAAGCGGGCTTAGTCTTGATTCGCTTGACGCTGCTG” the figure was 10.5; with “GATTAAATTCTGCCCTTATTCGCACGTGCCATAACAGTCTTGATTCGCTTGACGCTGCTG”, 8.86; with “CAGCATAGGACTTCTTCCCTGAAGCAATTGATAACGGTCTTGATTCGCTTGACGCTGCTG”, 8.9. The result for “TACTGACTTATATATGCGAATGCACATGAATAGACGGTCTTGATTCGCTTGACGCTGCTG” reads 8.69; that for “CGGAAATGTCGTAAACGTCGGATATCCGGTTCTTCTGTCTTGATTCGCTTGACGCTGCTG”, 12.6; that for “CAGCATAAGACTTCTTCCCTGAAGCAATTGATAACCGTCTTGATTCGCTTGACGCTGCTG”, 8.89. As to “GGAAAAAGGTCCAGGGTAACACCGGAAGTGGGCTTAGTCTTGATTCGCTTGACGCTGCTG”, the binding signal (log fluorescence intensity) worked out at 10.9.

Consider “GGTAAAAGGCCCAGGGTAACACCGGAAGTGGGCTTAGTCTTGATTCGCTTGACGCTGCTG”, for which the binding signal (log fluorescence intensity) was found to be 11. In the case of “GCTGCTGCGGTGCATACCCCACCGGTTGTGACCCCGGTCTTGATTCGCTTGACGCTGCTG”, the binding signal (log fluorescence intensity) was 8.84.

Regarding “TAAAGGGAAGACGGTTGTGGTGGTTCCGGGTATTAAGTCTTGATTCGCTTGACGCTGCTG”, the binding signal (log fluorescence intensity) is 11.1. As for “CAGCATAGGACTTCTTCCCTGAAGCAATGGATAACCGTCTTGATTCGCTTGACGCTGCTG”, the binding signal (log fluorescence intensity) turned out to be 9. For “TTTCGGGTAAGGGAATGTAGATCACGTGAATGAAAAGTCTTGATTCGCTTGACGCTGCTG”, the binding signal (log fluorescence intensity) came to 8.8. For the sequence “GGAACAAGGCCCAGGGTAACACCGGAAGTGGGCTTAGTCTTGATTCGCTTGACGCTGCTG”, the binding signal (log fluorescence intensity) is 10.9. The result for “CGGAAGTGTCGTAAATGTCGGATATCCGGTTCTTCTGTCTTGATTCGCTTGACGCTGCTG” reads 12.7; that for “CGGAAGTGTCGTAAACGTCGGATATACGGTTCTTCTGTCTTGATTCGCTTGACGCTGCTG”, 9.29; that for “TAAAGGGAAGACGGTTGTGGTAGTTACGGGTATTAAGTCTTGATTCGCTTGACGCTGCTG”, 9.1. “CACAATTTTTACAGTAATGTAGCACGCGTGACTCCTGTCTTGATTCGCTTGACGCTGCTG”: the binding signal (log fluorescence intensity) is 9.

With “GCTGCTGCGGTGCATACCCCACCGGATGTAACCCCGGTCTTGATTCGCTTGACGCTGCTG”, the binding signal (log fluorescence intensity) came out at 10.2.

Turning to “GTGTATAGGATCCCATCCAACAAACGTGTTAAAATGGTCTTGATTCGCTTGACGCTGCTG”, the binding signal (log fluorescence intensity) worked out at 8.94. On to “GTGTATAGGATCCCATCCAACACACGTGTTAAAAGGGTCTTGATTCGCTTGACGCTGCTG”, for which the binding signal (log fluorescence intensity) stood at 8.9. With “TCCGGCTGCCAGCTCCACCCACTTCAGGCCTTGTAGGTCTTGATTCGCTTGACGCTGCTG” the figure was 8.74; with “TACTGACTTATATATGCGAATGCACATGACTAGACCGTCTTGATTCGCTTGACGCTGCTG”, 8.72. Take “TGCTGACTTATATATGCGAATGCACATGAATAGACCGTCTTGATTCGCTTGACGCTGCTG”: the binding signal (log fluorescence intensity) is 8.75. For the sequence “CTGGGACTTGACCCAACTCTGCCACGTGGGTCGTTGGTCTTGATTCGCTTGACGCTGCTG”, the binding signal (log fluorescence intensity) was 8.95.

Turning to “TAAAGGGAAGACGGTTGTGGTAGTTCCGGGTATTACGTCTTGATTCGCTTGACGCTGCTG”, the binding signal (log fluorescence intensity) worked out at 11.1.

On to “CTGGGACTTGACCCAACTCTACCACGTGGGTCGTTTGTCTTGATTCGCTTGACGCTGCTG”, for which the binding signal (log fluorescence intensity) was determined as 9.09. For the sequence “TACTGACTTATATATGCGAGTGCACATGAATAGACCGTCTTGATTCGCTTGACGCTGCTG”, the binding signal (log fluorescence intensity) was 8.93. The result for “TCCGGCTACCAGCTCCACCCACTTCAGGCCTTGTCGGTCTTGATTCGCTTGACGCTGCTG” reads 9.01; that for “CAGCATAGGACATCTTCCCTGAAGCAATTGATAACCGTCTTGATTCGCTTGACGCTGCTG”, 8.87; that for “TAAAGGGAAGACGGTTGTGGTAGTTCTGGGTATTAAGTCTTGATTCGCTTGACGCTGCTG”, 8.85.

Take “GATTAATTTCTGCCCTTATTCGCACGTGCCATAATAGTCTTGATTCGCTTGACGCTGCTG”: the binding signal (log fluorescence intensity) amounted to 8.85. The result for “AGAAAAAGGCCCAGGGTAACACCGGAAGTGGGCTTAGTCTTGATTCGCTTGACGCTGCTG” reads 11.1; that for “GGAAAAAGGCCCAGGGTAACACCGGACGTGGGCTTAGTCTTGATTCGCTTGACGCTGCTG”, 9.38. With “GATTAATTTCTGCCCTTATTCGTACGTGCCATAACAGTCTTGATTCGCTTGACGCTGCTG” the figure was 8.81. With “GTGTATAGGATCCCATCCAACACCCGTGTTAAAATGGTCTTGATTCGCTTGACGCTGCTG” the figure was 8.86; with “TAAAGGGACGACGGTTGTGGTAGTTCCGGGTATTAAGTCTTGATTCGCTTGACGCTGCTG”, 11.3; with “GTGTATAGGATCCCATCCAACACACGTGTTAACATGGTCTTGATTCGCTTGACGCTGCTG”, 8.68. For the sequence “GCTGCTGCGGTGCATACCCCACCGGATGTGACCCGGGTCTTGATTCGCTTGACGCTGCTG”, the binding signal (log fluorescence intensity) stood at 10.3.

For the sequence “TAAAGGGAAGACGGTTGTGTTAGTTCCGGGTATTAAGTCTTGATTCGCTTGACGCTGCTG”, the binding signal (log fluorescence intensity) was found to be 11.3.

For “TCCGGCTACCAGCTCCACCCACTTCAGGCCTTGTGGGTCTTGATTCGCTTGACGCTGCTG”, the binding signal (log fluorescence intensity) is 8.96.
